Among all 310,000 compounds or so, about 14,000 (4.5%) showed an effect of 50% or more. The effect is printed as a negative number. The list shows a part of the results.
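Also: peak tail current of the secondary pulse compared with the same well before compound.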

For the assay, the target named is human ether-à-go-go-related gene (hERG) potassium channel (human, UniProt Q12809). Kind of assay: primary screen, population patch clamp on CHO cells stably expressing hERG.
Chain of human ether-à-go-go-related gene (hERG) potassium channel (Q12809 whole entry, looked up): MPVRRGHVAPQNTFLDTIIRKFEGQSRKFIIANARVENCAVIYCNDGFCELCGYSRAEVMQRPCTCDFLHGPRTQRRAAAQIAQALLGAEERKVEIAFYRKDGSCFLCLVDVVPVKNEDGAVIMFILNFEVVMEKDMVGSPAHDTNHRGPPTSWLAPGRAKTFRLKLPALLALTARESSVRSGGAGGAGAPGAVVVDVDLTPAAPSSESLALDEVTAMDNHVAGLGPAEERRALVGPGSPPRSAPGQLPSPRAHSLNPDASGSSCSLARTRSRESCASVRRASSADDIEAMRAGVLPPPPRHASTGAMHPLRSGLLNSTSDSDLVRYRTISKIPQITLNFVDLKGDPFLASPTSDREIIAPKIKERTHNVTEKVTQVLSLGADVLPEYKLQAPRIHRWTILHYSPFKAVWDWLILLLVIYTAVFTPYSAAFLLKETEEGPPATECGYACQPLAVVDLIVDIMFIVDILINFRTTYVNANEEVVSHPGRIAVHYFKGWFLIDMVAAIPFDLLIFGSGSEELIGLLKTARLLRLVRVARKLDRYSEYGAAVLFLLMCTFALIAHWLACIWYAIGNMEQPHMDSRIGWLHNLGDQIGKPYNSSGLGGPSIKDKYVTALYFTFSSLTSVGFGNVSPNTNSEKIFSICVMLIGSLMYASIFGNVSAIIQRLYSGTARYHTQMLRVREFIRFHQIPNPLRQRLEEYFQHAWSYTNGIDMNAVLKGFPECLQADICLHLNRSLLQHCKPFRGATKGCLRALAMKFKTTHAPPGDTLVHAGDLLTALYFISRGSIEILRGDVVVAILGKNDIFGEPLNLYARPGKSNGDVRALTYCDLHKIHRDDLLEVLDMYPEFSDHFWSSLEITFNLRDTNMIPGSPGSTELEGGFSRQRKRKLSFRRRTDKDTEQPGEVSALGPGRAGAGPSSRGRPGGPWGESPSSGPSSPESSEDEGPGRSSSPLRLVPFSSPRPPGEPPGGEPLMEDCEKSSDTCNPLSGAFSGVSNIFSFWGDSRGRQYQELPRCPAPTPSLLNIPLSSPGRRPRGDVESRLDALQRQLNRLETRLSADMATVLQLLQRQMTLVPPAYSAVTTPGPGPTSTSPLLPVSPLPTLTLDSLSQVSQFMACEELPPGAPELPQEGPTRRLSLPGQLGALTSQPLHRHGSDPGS
For the molecule `COc1ccc(-c2nn(-c3ccccc3)cc2C(=O)O)cc1OC`, the “hERG current change (%, negative = inhibition) at 10uM” value is 8.88%. The same measure for `Brc1ccc(Oc2ncc(CN3CCOCC3)s2)cc1`: -19.4%; for `Cc1cccc(C)c1NC(=O)COC(=O)c1c2c(nc3ccccc13)/C(=C\c1ccc3c(c1)OCO3)CCC2`: -6.69%; for `COc1cc(OC)cc(C(=O)O/N=C(\N)c2cccc(C)c2)c1`: 2.05%.

As for `COc1ccc(NC(=O)CN(C)C(=O)C(Sc2ccccc2)c2ccccc2)cc1` (stereo not drawn), the “hERG current change (%, negative = inhibition) at 10uM” value is given as -19.6%. As to `Cc1cc(=O)n2[nH]c(-c3ccc(C(C)(C)C)cc3)cc2n1`, the “hERG current change (%, negative = inhibition) at 10uM” value is reported as -3%. The same measure for `CCc1ccccc1N(C1=NCCCS1)S(=O)(=O)c1ccc(C(C)(C)C)cc1`: 4.37%; for `CCCCOC(=O)Cn1cnc2ccc(Br)cc2c1=O`: -30.1%; for `OC[C@@H](O)CCl`: 10.4%. As to `CNc1nc(OC)nc(N(C#N)CN2C(=O)c3ccccc3S2(=O)=O)n1`, the “hERG current change (%, negative = inhibition) at 10uM” value is listed as -24.7%. Next, `CC(C)CC(C)N` (stereo not drawn): 14.2%.

As for `Cc1cccc(-c2n[nH]c(=S)n2C)c1`, the “hERG current change (%, negative = inhibition) at 10uM” value was 22.7%. The same measure for `CCCCNC(=O)COC(=O)c1cc(C)oc1C`: 13.5%; for `C=CCn1sc(N)c(C(=O)OCC)c1=S`: 0.673%; for `CCC(C)(C)n1nnnc1CN1CCN(C(c2ccccc2)c2ccccc2)CC1`: -0.685%. In the case of `CCCNS(=O)(=O)c1ccc(OCC(=O)OC)cc1`, the “hERG current change (%, negative = inhibition) at 10uM” value was 9.6%. Next, `COc1ccc(C(=O)NCc2nnc(SCC(=O)NC3CCCCC3)n2C)cc1`: 0.192%; `O=C(Nc1ccc(OC(F)(F)F)cc1)Nc1cccc([N+](=O)[O-])c1`: 15.5%.

As to `COc1ccccc1OCC(=O)NCCC1=CCCCC1`, the “hERG current change (%, negative = inhibition) at 10uM” value was -11.6%. Take `O=C(Nc1cccc(C(F)(F)F)c1)c1scc2c1OCCO2`: the “hERG current change (%, negative = inhibition) at 10uM” value is 5.61%. For the molecule `C=CCSc1ncc(C#N)c(N)n1`, the “hERG current change (%, negative = inhibition) at 10uM” value is given as -6.13%. `Cc1ccc(Cn2c(C(C)Nc3nc(-c4ccc(F)cc4)cs3)nc3cc(C(F)(F)F)ccc32)cc1` (stereo not drawn): the “hERG current change (%, negative = inhibition) at 10uM” value came to 12.7%. As for `O=C(NCc1ccccn1)c1cc(-c2ccncc2)nc2ccccc12`, the “hERG current change (%, negative = inhibition) at 10uM” value is -25.6%. On to `CC1(C)CC(=O)C(C(N)=NC(=O)c2ccc([N+](=O)[O-])cc2)=C(O)C1`, for which the “hERG current change (%, negative = inhibition) at 10uM” value was 19%. Next, `Cc1ccc(SCC(=O)Nc2nnc(-c3ccco3)o2)cc1`: -14.6%; `CCc1cccc(C)c1NC(=O)C(c1ccccc1)N1CCC1=O` (stereo not drawn): 15.5%. With `CNC(=O)CC1C(=O)N(c2ccc(F)cc2)C(=S)N1NC(=O)c1ccc(Br)cc1` (stereo not drawn), the “hERG current change (%, negative = inhibition) at 10uM” value turned out to be 2.82%.

These data come from paper PMC4336329 (PLoS ONE, 2015).
